The supplement of paper PMC8728848
The list shows a part of the results.

Key:
Experiment in all cases: glycan array binding signal (z-score within array); higher = stronger binding
Conditions in all cases: glycan notation: IUPAC condensed, linker removed
[1] = target: Man(a1-2)Man(a1-3)[Man(a1-2)Man(a1-6)]Man
How it was run: (§1)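 Glycan array data came from 3228 arrays in the Consortium for Functional Glycomics database, and only arrays with an available protein sequence were kept. Glycan names were put into IUPAC-condensed notation, and columns mapping to the same glycan were averaged. The binding signal is a within-array Z-score, averaged across arrays of one protein sequence run at different concentrations or buffers and across linkers. A negative Z-score can be read as non-binding.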

[2] = target: Man(a1-2)Man(a1-3)[Man(a1-2)Man(a1-6)]Man(a1-6)[Man(a1-2)Man(a1-2)Man(a1-3)]Man
How it was run: as §1

[3] = target: Man(a1-2)Man(a1-3)[Man(a1-2)Man(a1-6)]Man(a1-6)[Man(a1-2)Man(a1-2)Man(a1-3)]Man(b1-4)GlcNAc(b1-4)GlcNAc
How it was run: as §1

[4] = target: Man(a1-2)Man(a1-3)[Man(a1-6)]Man(a1-6)[Man(a1-2)Man(a1-3)]Man(b1-4)GlcNAc(b1-4)GlcNAc
How it was run: as §1

[5] = target: Man(a1-2)Man(a1-6)[Man(a1-3)]Man(a1-6)[Man(a1-2)Man(a1-2)Man(a1-3)]Man
How it was run: as §1

[6] = target: Man(a1-2)Man(a1-6)[Man(a1-3)]Man(a1-6)[Man(a1-2)Man(a1-2)Man(a1-3)]Man(b1-4)GlcNAc(b1-4)GlcNAc
How it was run: as §1

Man(a1-3)[Man(a1-6)]Man = target: Man(a1-3)[Man(a1-6)]Man
How it was run: as §1

[7] = target: Man(a1-3)[Man(a1-6)]Man(a1-6)[Man(a1-2)Man(a1-3)]Man(b1-4)GlcNAc(b1-4)GlcNAc
How it was run: as §1

[8] = target: Man(a1-3)[Man(a1-6)]Man(a1-6)[Man(a1-3)]Man
How it was run: as §1

[9] = target: Man(a1-3)[Man(a1-6)]Man(a1-6)[Man(a1-3)]Man(b1-4)GlcNAc(b1-4)GlcNAc
How it was run: as §1

[10] = target: Man(a1-3)[Man(a1-6)]Man(b1-4)GlcNAc(b1-4)GlcNAc
How it was run: as §1

[11] = target: Man(a1-3)[Man(a1-6)]Man(b1-4)GlcNAc(b1-4)[Fuc(a1-6)]GlcNAc
How it was run: as §1

Man(a1-6)Man = target: Man(a1-6)Man
How it was run: as §1

Man(b1-4)GlcNAc = target: Man(b1-4)GlcNAc
How it was run: as §1

MurNAc(b1-4)GlcNAc = target: MurNAc(b1-4)GlcNAc
How it was run: as §1

Neu5Ac(a2-3)Gal = target: Neu5Ac(a2-3)Gal
How it was run: as §1

[12] = target: Neu5Ac(a2-3)Gal(b1-3)GalNAc
How it was run: as §1

[13] = target: Neu5Ac(a2-3)Gal(b1-3)GalNAc(b1-3)Gal(a1-4)Gal(b1-4)Glc
How it was run: as §1

[14] = target: Neu5Ac(a2-3)Gal(b1-3)GalNAc(b1-4)Gal(b1-4)Glc
How it was run: as §1

[15] = target: Neu5Ac(a2-3)Gal(b1-3)GalNAc(b1-4)[Neu5Ac(a2-3)]Gal(b1-4)Glc
How it was run: as §1

[16] = target: Neu5Ac(a2-3)Gal(b1-3)GalNAc(b1-4)[Neu5Ac(a2-8)Neu5Ac(a2-3)]Gal(b1-4)Glc
How it was run: as §1

[17] = target: Neu5Ac(a2-3)Gal(b1-3)GalNAc6S
How it was run: as §1

[18] = target: Neu5Ac(a2-3)Gal(b1-3)GlcNAc
How it was run: as §1

[19] = target: Neu5Ac(a2-3)Gal(b1-3)GlcNAc(b1-2)Man
How it was run: as §1

[20] = target: Neu5Ac(a2-3)Gal(b1-3)GlcNAc(b1-2)Man(a1-3)[GlcNAc(b1-4)][Neu5Ac(a2-3)Gal(b1-3)GlcNAc(b1-2)Man(a1-6)]Man(b1-4)GlcNAc(b1-4)GlcNAc
How it was run: as §1

[21] = target: Neu5Ac(a2-3)Gal(b1-3)GlcNAc(b1-2)Man(a1-3)[Neu5Ac(a2-3)Gal(b1-3)GlcNAc(b1-2)Man(a1-6)]Man(b1-4)GlcNAc(b1-4)GlcNAc
How it was run: as §1

[22] = target: Neu5Ac(a2-3)Gal(b1-3)GlcNAc(b1-2)[Neu5Ac(a2-3)Gal(b1-3)GlcNAc(b1-4)]Man(a1-6)[Neu5Ac(a2-3)Gal(b1-3)GlcNAc(b1-2)Man(a1-3)]Man(b1-4)GlcNAc(b1-4)GlcNAc
How it was run: as §1

[23] = target: Neu5Ac(a2-3)Gal(b1-3)GlcNAc(b1-3)Gal(b1-3)GlcNAc
How it was run: as §1

[24] = target: Neu5Ac(a2-3)Gal(b1-3)GlcNAc(b1-3)Gal(b1-4)GlcNAc
How it was run: as §1

[25] = target: Neu5Ac(a2-3)Gal(b1-3)GlcNAc(b1-3)GalNAc
How it was run: as §1

[26] = target: Neu5Ac(a2-3)Gal(b1-3)GlcNAc(b1-6)GalNAc
How it was run: as §1

[27] = target: Neu5Ac(a2-3)Gal(b1-3)GlcNAc6S
How it was run: as §1

[28] = target: Neu5Ac(a2-3)Gal(b1-3)[Fuc(a1-4)]GlcNAc
How it was run: as §1

[29] = target: Neu5Ac(a2-3)Gal(b1-3)[Fuc(a1-4)]GlcNAc(b1-3)Gal(b1-3)[Fuc(a1-4)]GlcNAc
How it was run: as §1

[30] = target: Neu5Ac(a2-3)Gal(b1-3)[Fuc(a1-4)]GlcNAc(b1-3)Gal(b1-4)[Fuc(a1-3)]GlcNAc
How it was run: as §1

[31] = target: Neu5Ac(a2-3)Gal(b1-3)[GlcNAc(b1-6)]GalNAc
How it was run: as §1

[32] = target: Neu5Ac(a2-3)Gal(b1-3)[Neu5Ac(a2-6)]GalNAc
How it was run: as §1

B1: Sebin1 (Coprinopsis cinerea), A8PEE3 (protein)
chain: MTSPFYAHIHNVQDDNTWRFTLIFANRATADEWWRAISEAPANTSIAKSITRVTPQYYTHDVNIWNIWNFFADGNIKSISERFRGRLFIVLENDRGGRGITVIPPVPIVDHVSGNWFYIRSKTAPHLFWYYDERRSSIYASKEKRTRFKISIRNPSSQTPKNAIMINTDDVTIHIKENLYVGVDNNLGHIIPTRAYRTFKFGELESGAIAGFDVVENIEERCSSTFDGASLSISGPDSSSPGEPWELV
[1]
  glycan array binding signal (z-score): -0.36
[2]
  glycan array binding signal (z-score): -0.458
[3]
  glycan array binding signal (z-score): -0.238
[4]
  glycan array binding signal (z-score): -0.418
[5]
  glycan array binding signal (z-score): -0.2
[6]
  glycan array binding signal (z-score): 1
Man(a1-3)[Man(a1-6)]Man
  glycan array binding signal (z-score): -0.525
[7]
  glycan array binding signal (z-score): 0.008
[8]
  glycan array binding signal (z-score): -0.935
[9]
  glycan array binding signal (z-score): 0.211
[10]
  glycan array binding signal (z-score): -0.029
[11]
  glycan array binding signal (z-score): -0.075
Man(a1-6)Man
  glycan array binding signal (z-score): -0.093
Man(b1-4)GlcNAc
  glycan array binding signal (z-score): -0.49
MurNAc(b1-4)GlcNAc
  glycan array binding signal (z-score): -0.492
Neu5Ac(a2-3)Gal
  glycan array binding signal (z-score): -0.637
[12]
  glycan array binding signal (z-score): 2.37
[13]
  glycan array binding signal (z-score): -0.384
[14]
  glycan array binding signal (z-score): -0.297
[15]
  glycan array binding signal (z-score): -0.154
[16]
  glycan array binding signal (z-score): -0.281
[17]
  glycan array binding signal (z-score): -0.573
[18]
  glycan array binding signal (z-score): -0.465
[19]
  glycan array binding signal (z-score): -0.255
[20]
  glycan array binding signal (z-score): 0.037
[21]
  glycan array binding signal (z-score): -0.405
[22]
  glycan array binding signal (z-score): -0.386
[23]
  glycan array binding signal (z-score): -0.585
[24]
  glycan array binding signal (z-score): 0
[25]
  glycan array binding signal (z-score): 0.3
[26]
  glycan array binding signal (z-score): -0.335
[27]
  glycan array binding signal (z-score): -0.146
[28]
  glycan array binding signal (z-score): -0.733
[29]
  glycan array binding signal (z-score): 0.376
[30]
  glycan array binding signal (z-score): -0.358
[31]
  glycan array binding signal (z-score): -0.264
[32]
  glycan array binding signal (z-score): -0.336
